Some of the results follow.

For the assay, the system named is S. aureus RN4220. The assay can be described thus: growth inhibition call (relative growth <= 0.2). Particulars: 50 µM.
As to `COCCNC(=O)C[C@H]1CC[C@@H](NS(=O)(=O)c2ccc(C)cc2)[C@@H](CO)O1`, the growth inhibition call was “inactive”.

With `C[C@@H]1CN([C@H](C)CO)C(=O)Cc2cc(NC(=O)CCN3CCOCC3)ccc2O[C@@H]1CN(C)Cc1ccncc1`, the growth inhibition call is “inactive”.

Consider `COc1ccc([C@H]2C/C=C\C[C@H](c3cccc(Cl)c3)NC(=O)[C@@H](c3ccccc3)CC(=O)N2)c(OC)c1`, for which the growth inhibition call was “inactive”. Then `C[C@H]1CN([C@@H](C)CO)C(=O)c2cc(NC(=O)Nc3ccc4c(c3)OCO4)ccc2O[C@@H]1CN(C)C(=O)Nc1cccc2ccccc12`, with “inactive”; and `C[C@H]1CN([C@@H](C)CO)C(=O)Cc2cc(NC(=O)CCN3CCOCC3)ccc2O[C@H]1CN(C)S(=O)(=O)c1ccc(Cl)cc1`, with “inactive”; and `Cc1noc(C)c1NC(=O)Nc1ccc2c(c1)CC(=O)N([C@H](C)CO)C[C@@H](C)[C@@H](CN(C)Cc1ccc(Oc3ccccc3)cc1)O2`, with “inactive”. Consider `Cc1ccc2c(N)[nH]nc2n1`, for which the growth inhibition call is “inactive”. Then `Nc1ccc(Cl)nn1`, with “inactive”; and `CCOC(=O)Cn1cnc2ccccc2c1=O`, with “inactive”. Then `C[C@H]1CN([C@@H](C)CO)C(=O)Cc2cc(NC(=O)Nc3cccc4ccccc34)ccc2O[C@H]1CN(C)S(=O)(=O)c1ccc(F)cc1`, with “inactive”; and `Cc1cccc(S(=O)(=O)N2C[C@@H](O)COC[C@@H]3O[C@@H](CC(=O)NCCCN4CCOCC4)CC[C@H]32)c1`, with “inactive”.

For `C[C@@H]1CN([C@@H](C)CO)C(=O)c2cc(NC(=O)c3ccccc3)ccc2O[C@@H](C)CCCCO[C@@H]1CN(C)CC1CCCCC1`, the growth inhibition call was “inactive”. Then `COc1ccc(S(=O)(=O)Nc2ccc3c(c2)C(=O)N([C@H](C)CO)C[C@@H](C)[C@H](CN(C)S(=O)(=O)c2ccc(Cl)cc2)OCCCC[C@@H](C)O3)cc1`, with “inactive”. Then `C[C@H](CO)N1C[C@H](C)[C@H](CN(C)C(=O)NC2CCCCC2)OCCCC[C@H](C)Oc2ccc(NC(=O)NC3CCCCC3)cc2C1=O`, with “inactive”; and `Cc1noc(C)c1NC(=O)Nc1ccc2c(c1)C(=O)N([C@H](C)CO)C[C@H](C)[C@@H](CN(C)C(=O)Nc1c(C)noc1C)OCCCC[C@@H](C)O2`, with “inactive”; and `CN1C(=O)c2cc(NC(=O)c3ccc(C(F)(F)F)cc3)ccc2OC[C@@H]2O[C@@H](CC(=O)NC3Cc4ccccc4C3)CC[C@H]21`, with “inactive”. `Cc1ccc(S(=O)(=O)Nc2ccc3c(c2)C(=O)N([C@H](C)CO)C[C@H](C)[C@@H](CN(C)C(=O)Nc2ccc4c(c2)OCO4)OCCCC[C@H](C)O3)cc1`: the growth inhibition call is “inactive”. For the molecule `COc1ccc(C(=O)Nc2ccc(CN3C(=O)[C@]4(O[C@H](CC(=O)N(CCO)Cc5ccccc5)[C@@H]([Si](C)(C)c5ccc(OC)cc5)[C@@H]4C)c4ccccc43)cc2)cc1`, the growth inhibition call is “inactive”. Then `Cc1ccc(S(=O)(=O)N(C)C[C@@H]2Oc3ncc(Br)cc3C(=O)N([C@H](C)CO)C[C@@H]2C)cc1`, with “inactive”; and `C[C@H]1CN([C@@H](C)CO)C(=O)c2cccc(NC(=O)C3CCOCC3)c2O[C@H]1CN(C)Cc1ccc(-c2ccccc2)cc1`, with “inactive”; and `C[C@H](CO)N1C[C@H](C)[C@@H](CN(C)C(=O)Nc2ccc3c(c2)OCO3)Oc2ccc(NC(=O)Nc3ccc(C(F)(F)F)cc3)cc2CC1=O`, with “inactive”. Then `COc1ccc(S(=O)(=O)Nc2ccc3c(c2)C(=O)N([C@@H](C)CO)C[C@@H](C)[C@@H](CN(C)S(=O)(=O)c2ccc(Cl)cc2)OCCCC[C@H](C)O3)cc1`, with “inactive”.

`C[C@@H]1CCCCO[C@@H](CN(C)S(C)(=O)=O)[C@@H](C)CN([C@H](C)CO)C(=O)c2cc(NS(C)(=O)=O)ccc2O1`: the growth inhibition call is “inactive”.

Turning to `Nc1cc(N)nc(SCCC(=O)O)n1`, the growth inhibition call was “inactive”.

Consider `COc1ccc(S(=O)(=O)Nc2ccc3c(c2)C(=O)N([C@H](C)CO)C[C@H](C)[C@H](CN(C)Cc2ccc(C(=O)O)cc2)OCCCC[C@@H](C)O3)cc1`, for which the growth inhibition call was “inactive”. Turning to `COCC(=O)N1C[C@@H](C)[C@H](OC)CN(C)C(=O)c2ccc(NC(=O)Nc3ccccc3)cc2OC[C@H]1C`, the growth inhibition call is “inactive”. Then `CO[C@H]1CN(C)C(=O)c2cc(NC(=O)NC3CCCCC3)ccc2OC[C@H](C)N(CCc2ccccc2)C[C@@H]1C`, with “inactive”; and `O=C1OC(c2cc(I)c(O)c(I)c2)(c2cc(I)c(O)c(I)c2)c2ccccc21`, with “inactive”; and `CO[C@H]1CN(C)C(=O)c2ccc(NC(=O)CC(F)(F)F)cc2OC[C@H](C)N(S(=O)(=O)c2cn(C)cn2)C[C@H]1C`, with “inactive”. `COc1ccc2c3c([nH]c2c1)[C@@H](CO)N(C[C@]13CCN(CC1)CC1CCCCC1)C(=O)Nc1c(noc1C)C`: the growth inhibition call was “inactive”. Regarding `C[C@H]1CN([C@@H](C)CO)C(=O)Cc2cc(NC(=O)Nc3cccc4ccccc34)ccc2O[C@@H]1CN(C)Cc1ccc2c(c1)OCO2`, the growth inhibition call was “inactive”. Then `COc1ccc(S(=O)(=O)N[C@@H]2CC[C@@H](CC(=O)N3CCC(Cc4ccccc4)CC3)O[C@@H]2CO)cc1`, with “inactive”; and `C[C@H]1CN([C@@H](C)CO)C(=O)c2c(c3ccccc3n2C)-c2ccccc2CO[C@@H]1CN(C)Cc1ccc(Cl)c(Cl)c1`, with “inactive”. Then `C[C@@H]1CN([C@H](C)CO)C(=O)Cc2cc(NS(=O)(=O)c3ccccc3)ccc2O[C@H]1CN(C)Cc1ccc(-c2ccccc2)cc1`, with “inactive”. Then `CC/C=C\C/C=C\C/C=C\C/C=C\C/C=C\C/C=C\CCC(=O)OCC`, with “inactive”. Consider `C[C@H]1CN([C@@H](C)CO)S(=O)(=O)c2ccc(C#Cc3ccncc3)cc2O[C@H]1CN(C)C(=O)C1CCC1`, for which the growth inhibition call is “inactive”. As to `Cc1noc(C)c1S(=O)(=O)N(C)C[C@H]1Oc2ccc(NS(=O)(=O)c3cccs3)cc2CC(=O)N([C@@H](C)CO)C[C@H]1C`, the growth inhibition call is “inactive”.

As for `CCCCOc1cc(C(=O)NCCN(CC)CC)c2ccccc2n1.Cl`, the growth inhibition call was “inactive”. Then `CCC(=O)N[C@H]1CC[C@@H](CC(=O)OC)O[C@@H]1CO`, with “inactive”; and `C[C@@H]1CN([C@@H](C)CO)C(=O)c2cc(NC(=O)Nc3ccc(F)cc3)ccc2O[C@@H](C)CCCCO[C@@H]1CN(C)Cc1ccc(C(F)(F)F)cc1`, with “inactive”.

The values above are taken from the antibiotic and cytotoxicity screens of Wong et al. (2023).
